Tested on: Aβ in N2a/AβPPswe cells
Assay: Sandwich ELISA of Aβ in N2a/AβPPswe cells treated with THC and CB1 inhibitor rimonabant
Type: cell-based, human
Settings: 0.1-100 μM rimonabant with 25 nM THC
Description: The mechanism of action was elucidated for THC's effect on Aβ levels using a sandwich ELISA assay. N2a/AβPPswe cells, as discussed in Example 1, were suspended to 2×10^5/mL, 3 mL plated into each well, and grown in DMEM with 10% fetal bovine serum, 100 U/mL penicillin, 100 μg/mL streptomycin, and 400 μg/mL G418 (Invitrogen), at 37° C. in the presence of 5% CO2. N2a/AβPPswe cells were subcultured using trypsin, and pipetted numerous times to ensure cells were separated into individual cells. Cells were counted, as provided in Example 1, and proper amount of cell medium and fresh medium was added into new flasks according to the ratio of dilution. Pipetting was performed 10 times to homogenize cells, and 3 mL of cells were seeded into medium into each 6 well plate. When one pipette was used up, the cells were mixed in the flask before using them for the next pipette. Compounds were suspended in DMSO.
12 hours after cells were plated, cells were treated with 25 nM of Δ9-THC (T4764-1ML Sigma Aldrich, Merck KGaA; Darmstadt, Germany), with the known inhibitor of the CB1 receptor, rimonabant, at 0 μM, 100 μM, 10 μM, 1 μM, or 0.1 μM rimonabant. Untreated N2a/AβPPswe cells were used as a control. Treatment was then washed out, i.e. the medium was then removed from the cultures and 3 mL of media containing the treatment compounds were added. […]

## Cc1c(C(=O)NN2CCCCC2)nn(-c2ccc(Cl)cc2Cl)c1-c1ccc(Cl)cc1 [rimonabant]
  Aβ as the concentration of the inhibitor was increased: dose-dependent increases in Aβ

From patent publication US11446276B2, “Extreme low dose THC as a therapeutic and prophylactic agent for Alzheimer's disease” (University of South Florida, priority 2015, dated 2022)
